Where a chain is given by its changes, count along the chain named. Results are given in words; binding and its absence hold for the method and conditions named. In cells and extracts the contact can be indirect. Some results given as binding are weak or reduced against the parent protein; the word gives no strength. For some assays here: Sequences can lack the tags named with a protein. Blank lines part the entries; values can stand above or below the molecule they belong to.
Legend:
Flag-LMNB2 WT (lamin B2) [1] = biological target: T1, Flag-LMNB2 WT (lamin B2) (UniProt Q03252); test: co-IP; cells transfected with Flag-WT or mutated LMNB2; endogenous WDR26 detected
T1 sequence: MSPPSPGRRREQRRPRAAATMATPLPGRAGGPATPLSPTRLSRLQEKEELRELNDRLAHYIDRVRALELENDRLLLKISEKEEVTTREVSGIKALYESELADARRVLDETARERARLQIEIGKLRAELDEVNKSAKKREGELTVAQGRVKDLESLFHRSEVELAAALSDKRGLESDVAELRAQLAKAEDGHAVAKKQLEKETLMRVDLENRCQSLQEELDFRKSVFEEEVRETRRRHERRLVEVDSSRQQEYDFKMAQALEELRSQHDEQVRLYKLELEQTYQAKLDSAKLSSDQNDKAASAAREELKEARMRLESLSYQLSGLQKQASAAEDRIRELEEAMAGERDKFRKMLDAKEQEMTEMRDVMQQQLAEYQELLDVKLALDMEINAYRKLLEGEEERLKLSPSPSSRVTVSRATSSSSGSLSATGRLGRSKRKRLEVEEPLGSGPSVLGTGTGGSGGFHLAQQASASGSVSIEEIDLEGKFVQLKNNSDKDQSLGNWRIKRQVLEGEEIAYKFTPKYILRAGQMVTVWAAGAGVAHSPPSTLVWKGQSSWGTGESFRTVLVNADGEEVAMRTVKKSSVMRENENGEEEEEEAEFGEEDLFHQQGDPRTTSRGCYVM

By UniProt entry, the sequences of proteins in these tests, tags left out. Residues count along the entry.
UniProt P20700: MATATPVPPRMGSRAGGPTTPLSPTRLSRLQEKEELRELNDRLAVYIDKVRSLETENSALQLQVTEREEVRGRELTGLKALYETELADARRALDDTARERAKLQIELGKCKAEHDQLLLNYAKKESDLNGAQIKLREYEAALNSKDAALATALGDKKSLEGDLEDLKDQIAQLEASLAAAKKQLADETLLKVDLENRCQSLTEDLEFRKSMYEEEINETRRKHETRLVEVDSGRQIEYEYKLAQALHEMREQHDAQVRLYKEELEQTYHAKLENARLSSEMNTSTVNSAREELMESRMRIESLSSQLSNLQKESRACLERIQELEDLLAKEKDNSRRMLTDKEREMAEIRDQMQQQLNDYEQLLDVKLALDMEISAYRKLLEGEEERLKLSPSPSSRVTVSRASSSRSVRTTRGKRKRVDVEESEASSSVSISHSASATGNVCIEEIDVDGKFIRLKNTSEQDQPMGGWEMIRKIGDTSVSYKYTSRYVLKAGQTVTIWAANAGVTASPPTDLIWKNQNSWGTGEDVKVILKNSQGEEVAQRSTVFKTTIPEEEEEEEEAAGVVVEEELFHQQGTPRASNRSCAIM
UniProt P02545, residues 1-646: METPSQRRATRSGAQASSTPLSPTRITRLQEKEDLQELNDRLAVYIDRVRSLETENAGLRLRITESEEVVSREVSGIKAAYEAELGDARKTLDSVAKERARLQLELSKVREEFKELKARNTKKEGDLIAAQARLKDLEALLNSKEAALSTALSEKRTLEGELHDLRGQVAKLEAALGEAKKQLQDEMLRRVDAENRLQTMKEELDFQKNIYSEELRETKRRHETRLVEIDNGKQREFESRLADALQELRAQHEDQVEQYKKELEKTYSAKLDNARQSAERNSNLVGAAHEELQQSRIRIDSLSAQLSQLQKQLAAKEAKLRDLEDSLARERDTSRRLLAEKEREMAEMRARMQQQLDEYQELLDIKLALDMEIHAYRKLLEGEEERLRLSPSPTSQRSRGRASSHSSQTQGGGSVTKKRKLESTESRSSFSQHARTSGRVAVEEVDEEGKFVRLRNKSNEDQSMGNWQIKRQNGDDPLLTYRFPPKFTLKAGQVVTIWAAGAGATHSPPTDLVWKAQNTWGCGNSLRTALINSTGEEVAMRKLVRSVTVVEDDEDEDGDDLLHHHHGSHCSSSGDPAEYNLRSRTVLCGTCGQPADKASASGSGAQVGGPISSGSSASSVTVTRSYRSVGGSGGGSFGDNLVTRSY
UniProt O43791: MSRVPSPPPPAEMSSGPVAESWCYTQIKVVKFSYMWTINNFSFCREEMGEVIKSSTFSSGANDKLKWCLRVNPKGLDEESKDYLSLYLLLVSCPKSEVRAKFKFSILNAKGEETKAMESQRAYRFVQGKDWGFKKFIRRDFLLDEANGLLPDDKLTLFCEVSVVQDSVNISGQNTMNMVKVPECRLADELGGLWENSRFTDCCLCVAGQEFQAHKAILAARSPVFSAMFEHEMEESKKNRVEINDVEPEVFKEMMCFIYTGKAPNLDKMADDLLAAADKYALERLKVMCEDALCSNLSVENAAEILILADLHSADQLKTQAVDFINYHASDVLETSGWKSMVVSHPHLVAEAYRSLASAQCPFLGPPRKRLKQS
UniProt Q9H7D7: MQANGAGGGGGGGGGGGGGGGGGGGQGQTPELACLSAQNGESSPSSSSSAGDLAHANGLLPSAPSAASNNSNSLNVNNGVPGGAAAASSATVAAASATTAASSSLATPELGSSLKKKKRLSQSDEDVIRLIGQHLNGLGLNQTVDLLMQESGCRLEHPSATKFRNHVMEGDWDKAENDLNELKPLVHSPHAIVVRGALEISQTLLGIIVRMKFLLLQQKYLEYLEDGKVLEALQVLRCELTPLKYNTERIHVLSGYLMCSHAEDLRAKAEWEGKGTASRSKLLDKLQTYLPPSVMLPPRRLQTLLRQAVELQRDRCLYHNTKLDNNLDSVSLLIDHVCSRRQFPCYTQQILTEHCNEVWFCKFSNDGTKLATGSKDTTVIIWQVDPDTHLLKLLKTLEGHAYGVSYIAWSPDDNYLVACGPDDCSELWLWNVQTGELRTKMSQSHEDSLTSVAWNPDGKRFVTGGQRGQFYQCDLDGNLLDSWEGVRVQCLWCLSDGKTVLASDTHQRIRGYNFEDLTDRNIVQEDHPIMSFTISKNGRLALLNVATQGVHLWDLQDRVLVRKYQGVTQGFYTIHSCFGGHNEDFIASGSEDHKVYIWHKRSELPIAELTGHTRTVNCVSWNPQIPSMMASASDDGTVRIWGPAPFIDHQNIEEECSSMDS

Flag-LMNB2 K484R [2] = biological target: T2, Flag-LMNB2 K484R (UniProt Q03252); test: as above
T2 sequence: T1 sequence with K484R

Flag-LMNB2 WT (lamin B2) [3] = biological target: T1, Flag-LMNB2 WT (lamin B2); test: co-IP; 293T cells transiently transfected with both tagged partners; IP buffer 50 mM Tris-HCl pH 7.4, 150 mM NaCl, 0.1% NP-40; HA/Flag/Myc agarose beads overnight at 4°C; also done in control and SPOP knockout cells
Flag-LMNB2 K484R [4] = biological target: T2, Flag-LMNB2 K484R; test: as above
Flag-LMNB2 WT (lamin B2) [5] = biological target: T1, Flag-LMNB2 WT (lamin B2); test: co-IP; 293T cells transfected with increased Myc SPOP in combination with indicated constructs; LMNB2-WDR26 co-precipitation read
[6] = biological target: endogenous LMNB1 (lamin B1) (human (endogenous in HEK293T)) (UniProt P20700); test: co-IP; endogenous proteins in 293T cells, indicated antibodies on protein A/G beads; IP buffer 50 mM Tris-HCl pH 7.4, 150 mM NaCl, 0.1% NP-40, overnight at 4°C
[7] = biological target: T3, endogenous LMNB2 (lamin B2) (human (endogenous in HEK293T)) (UniProt Q03252); test: as above
T3 sequence: T1 sequence

[8] = biological target: endogenous lamin A/C (LMNA) (human (endogenous in HEK293T)) (UniProt P02545); test: as above
[9] = biological target: Flag-LMNA (lamin A/C) (human) (UniProt P02545); test: co-IP; 293T cells transiently transfected with both tagged partners; IP buffer 50 mM Tris-HCl pH 7.4, 150 mM NaCl, 0.1% NP-40; HA/Flag/Myc agarose beads overnight at 4°C; also done in control and SPOP knockout cells
[10] = biological target: T4, LMNB2 with 418TSS420 mutated to 418TAA420 in SBC1 (UniProt Q03252); test: as above
T4 sequence: T1 sequence with S419A, S420A

Flag-LMNB2 ΔSBC1 = biological target: T5, Flag-LMNB2 ΔSBC1 (UniProt Q03252); test: as above
T5 sequence: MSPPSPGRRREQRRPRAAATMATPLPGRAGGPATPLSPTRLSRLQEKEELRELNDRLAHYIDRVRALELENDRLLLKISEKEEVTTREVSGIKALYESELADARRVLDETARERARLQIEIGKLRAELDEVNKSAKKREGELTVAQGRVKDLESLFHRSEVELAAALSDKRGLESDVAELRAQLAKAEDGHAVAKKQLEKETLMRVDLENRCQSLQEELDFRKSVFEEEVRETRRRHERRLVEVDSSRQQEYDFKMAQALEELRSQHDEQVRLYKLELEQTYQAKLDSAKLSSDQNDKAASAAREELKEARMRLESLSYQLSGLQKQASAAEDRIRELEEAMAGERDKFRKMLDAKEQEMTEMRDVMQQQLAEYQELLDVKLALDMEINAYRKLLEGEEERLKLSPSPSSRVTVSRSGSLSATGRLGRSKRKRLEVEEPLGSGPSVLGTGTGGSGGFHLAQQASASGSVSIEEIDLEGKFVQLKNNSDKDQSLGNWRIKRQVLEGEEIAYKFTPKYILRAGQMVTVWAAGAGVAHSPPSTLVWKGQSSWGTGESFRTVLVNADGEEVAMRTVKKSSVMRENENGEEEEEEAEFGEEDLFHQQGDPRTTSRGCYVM

[11] = biological target: Flag-LMNB1 (lamin B1) (human) (UniProt P20700); test: as above
[12] = biological target: GST-SPOP purified from E. coli (UniProt O43791); test: pull-down; in vitro; GST-SPOP purified from E. coli with LMNB2

Molecule: endogenous WDR26 (from UniProt Q9H7D7 1-661)
binding (Flag-LMNB2 WT (lamin B2) [1]): binds
binding (Flag-LMNB2 K484R [2]): binds

B1: LMNB2 of the in vitro binding test with GST-SPOP (protein, UniProt Q03252 1-620)
chain: T1 sequence
binding [12]: binds

Continued, values first:

binding (Flag-LMNB2 WT (lamin B2) [3]): binds
binding (Flag-LMNB2 K484R [4]): binds
binding (Flag-LMNB2 WT (lamin B2) [5]): binds
Molecule: exogenous WDR26 (WD repeat domain 26), pCMV-WDR26-3×HA-Neo (from UniProt Q9H7D7 1-661)

binding [6]: no binding
binding [7]: binds
binding [8]: no binding
Molecule: endogenous SPOP (from UniProt O43791 1-374)

binding (Flag-LMNB2 WT (lamin B2) [3]): binds
binding [9]: no binding
binding [10]: no binding
binding (Flag-LMNB2 ΔSBC1): no binding
binding [11]: no binding
Molecule: Myc-SPOP WT (speckle-type POZ protein), ectopically expressed (from UniProt O43791 1-374)
